The text below walks through data of article PMC12040169 (PLOS Biology, 2025).

SMILES strings stand for the structures. Some of the results follow.

This test concerns T1, C. trachomatis L2/434/Bu expressing GFP (CTL2-GFP).
T1 construct: L2/434/Bu GFP intracellular growth in HeLa cells
On the set-up: species or system HeLa; C. trachomatis total inclusion area by high-content imaging, normalised to DMSO. Particulars: total inclusion area; 28.5 h, 10 µM; inhibitor. In short, it runs like this:
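Bulk GFP and resorufin signals were read first. Wells were then fixed, stained with Hoechst and imaged to detect GFP inclusions and host nuclei. MICs followed the previously described calculation.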
Take `Cc1cccc(CN2CCC[C@@H]3CN(C(=O)CC(C)C)C[C@@H]32)n1` [CBK285291]: the “% of control remaining” value amounted to 99.2939.
Consider `Cc1cc(=O)n2c3ccccc3n(CC(O)CN3CCN(C(c4ccccc4)c4ccccc4)CC3)c2c1C#N` (stereo not shown) [CBK268375], for which the “% of control remaining” value is recorded as 91.2681.
In the case of `N#Cc1ccc(CNC(=O)c2ccc(-c3ccc(OC(F)(F)F)cc3)nc2)cc1` [CBK156249], the “% of control remaining” value turned out to be 87.6111.
In the case of `Cn1c(=O)oc2cc(S(=O)(=O)NCc3ccccc3)ccc21` [CBK267568], the “% of control remaining” value was found to be 78.4549.
As to `c1ccc(CN2CCC3(CC2)CNCc2ccccc2O3)cc1` [CBK282605], the “% of control remaining” value stood at 76.7134.
For `CC(=O)NCC1CC(N2CCSCC2)=NO1` (stereo not shown) [CBK010367], the “% of control remaining” value is 70.3513.
In the case of `FC(F)(F)c1cccc(-c2cnn(-c3ccc4c(c3)OCO4)n2)c1` [CBK112664], the “% of control remaining” value amounted to 82.0208.
On to `CC(=O)C1=C(C)N(CC2CCCO2)C(=O)C1(NC(=O)c1ccc(C(C)(C)C)cc1)C(F)(F)F` (stereo not shown) [CBK268043], for which the “% of control remaining” value was 107.725.
Consider `COc1nn(CC(=O)Nc2cccc(CCc3ccncc3)c2)c(=O)c2ccccc12` [CBK285560], for which the “% of control remaining” value was 99.9978.
Turning to `COc1ccc(Br)c(C(=O)Nc2[nH]nc(O)c2Cc2c(Cl)cccc2Cl)c1` [CBK084554], the “% of control remaining” value stood at 82.3657.
For `Cc1cc2nc(CC(=O)NN)[nH]c2cc1C` [CBK012180], the “% of control remaining” value was 130.717.
Under `O=C(CC1CCCC1)N1CCC(c2nnc(-c3ccsc3)o2)CC1` [CBK283381] stands 76.5786; under `COc1ccccc1C1(O)CCN(Cc2ccccc2OCc2ccc3c(c2)OCO3)CC1` [CBK286337], 78.4104; under `OC(COc1ccc2c(c1)OCO2)CN1CCN(C(c2ccccc2)c2ccccc2)CC1` (stereo not shown) [CBK074854C], 96.6651.
Take `CN1CCN(C(=O)c2c(NS(=O)(=O)/C=C/c3ccccc3)sc3c2CCCC3)CC1` [CBK050417]: the “% of control remaining” value worked out at 108.828.
As to `COCC(=O)Nc1ccc(N2CCCC2=O)c(Cl)c1` [CBK256871], the “% of control remaining” value is listed as 77.2692.
As for `CSc1ccc2cc(CSc3nnc(-c4cccs4)n3CC(=O)O)c(Cl)nc2c1` [CBK295298], the “% of control remaining” value is 134.051.
Under `O=C(Cc1ccc2c(c1)CCCC2)Nc1cccc(-c2nnn[nH]2)c1` [CBK297129] stands 69.1379.
Consider `Cn1cc(C(=O)Nc2ccccc2N2CCNCC2)c2ccccc21` [CBK034141T], for which the “% of control remaining” value was 97.7624.
Consider `CCC1(CC)OC(NCc2ccccc2)=NC1=O` [CBK122636], for which the “% of control remaining” value is reported as 9.701.
Under `O=C(Nc1ccncc1)c1ccc2nc[nH]c2c1` [CBK269034] stands 96.9374; under `Cc1ccc(C(=O)O)cc1NC(=O)C(C)Oc1cccc(Cl)c1` (stereo not shown) [CBK268331], 83.5513; under `COc1ccc(CNC(=O)c2sc3ncnc(N(C)C4CCCCC4)c3c2C)cc1` [CBK294431], 118.288.
On to `O=C(Nc1ccc(Cl)cc1)N1Cc2nc[nH]c2C[C@H]1c1nc(-c2ccncc2)no1` [CBK288964], for which the “% of control remaining” value stood at 82.2543.
Under `Fc1cc(Br)ccc1-c1cn(-c2ccccc2)nn1` [CBK113148] stands 41.2908.
For the compound `CCOc1cc(C(c2c[nH]c3ccccc23)c2c[nH]c3ccccc23)cc([N+](=O)[O-])c1O` [CBK266061], the “% of control remaining” value is on record as 82.467.
As to `CC(=O)NCCSc1cc(NC(C)C)ncn1` [CBK105293], the “% of control remaining” value came out at 116.724.
In the case of `COC(=O)Cn1cnc2sc(C(=O)Nc3ccccc3OC)c(C)c2c1=O` [CBK071808], the “% of control remaining” value is recorded as 113.586.
As for `Cc1cc(C2CCCCCN2C(=O)c2nn(C)cc2Cl)on1` (stereo not shown) [CBK284843], the “% of control remaining” value is 97.4998.
`COc1ccc(/C(C)=N/NC(=O)CSCc2cccc(Br)c2)cc1` [CBK261205]: the “% of control remaining” value is reported as 94.3282.
Turning to `Cc1ccnc(SCCn2c(N(C)Cc3ccccc3)nc3c2c(=O)n(C)c(=O)n3C)n1` [CBK269394], the “% of control remaining” value worked out at 99.555.
Turning to `CCN(CC)CCNc1ncnc(N)c1[N+](=O)[O-]` [CBK267287], the “% of control remaining” value is 95.059.
Turning to `Cc1ccc(C(=O)Nc2ccc(S(=O)(=O)N3CCCC3)cc2)cc1S(=O)(=O)Nc1ccccc1` [CBK268054], the “% of control remaining” value came out at 13.3209.
Turning to `CCc1cc(-c2n[nH]c(C)c2Oc2ccc(C(C)C)cc2)c(O)cc1O` [CBK264940], the “% of control remaining” value is given as 82.4579.
With `Cc1nn(C)cc1C(=O)NC1CCCC1` [CBK057851], the “% of control remaining” value came to 72.3149.
On to `CCC(C)c1nnc(C2(c3ccc(Br)cc3)CCOCC2)o1` (stereo not shown) [CBK306229], for which the “% of control remaining” value was 100.152.
Turning to `CC(Nc1cccc2ccccc12)C(=O)N/N=C/c1ccc(O)cc1O` (stereo not shown) [CBK262681], the “% of control remaining” value turned out to be 24.8882.
Turning to `Cc1cc(C)nc(NC(=O)C(C)Oc2ccc(Cl)cc2Cl)n1` (stereo not shown) [CBK265600], the “% of control remaining” value stood at 89.5506.
For `Cc1cc(NC(=O)c2c(F)cccc2F)nc2c1c(=O)oc1ccccc12` [CBK291115], the “% of control remaining” value is reported as 111.861.
As to `CCc1nc2ccc(C(=O)Nc3ccc4c(c3)CCN4C(C)=O)cn2c1N(C=O)CC` [CBK145944], the “% of control remaining” value turned out to be 93.6638.
